Data: PubChem BioAssay AID686979 (National Center for Advancing Translational Sciences (NCATS), 2013)
Values joined by “and” are separate entries in the source; they are usually repeats but may differ in a detail not shown here. Identical values can stand only once. About 50,000 (12%) of roughly 420,000 compounds were called active. This list was built around the results that the source calls inconclusive (neither active nor inactive); the mix of calls is not that of the screen. The call rests on the fitted dose curve; in most records, active means well fitted inhibition curve with a large enough effect; inconclusive means small, poorly fitted or top-dose-only effect; inactive means flat fitted curve, though single readings scatter. No potency is given beside an inconclusive call; the fits are too rough.

Experiment: qHTS for Inhibitors of human tyrosyl-DNA phosphodiesterase 1 (TDP1): qHTS in cells in presence of CPT; further: nearly all actives have a fitted effect of over 55% in size
Details: chicken DT40 Tdp1-/-;hTDP1 cells + 20 nM CPT, ATP luminescence, 48 h; activity change, negative = growth inhibition: at 46.2 µM (top of the series) unless noted
Outline: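 Chicken DT40 Tdp1-/- cells complemented with human TDP1, 400 cells/well, exposed to compounds plus 20 nM camptothecin for at least 48 h at 37 C; viability read as ATP content by CellTiter-Glo luminescence.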
On the % scale 0 is the no-effect control and ±100 the full control effect; potency means the concentration at half of the fitted maximal effect; tags describe the fitted curve by direction and shape.

| Compound | Potency | activity change, negative = growth inhibition |
| --- | --- | --- |
| COc1cc2c(cc1OC)C(C(=O)NCC1COc3ccccc3O1)C(c1cccnc1)N(C)C2=O (configuration not stated) | inactive | – |
| CCOC(=O)COc1c(Cl)cc(C2NC(=S)NC(c3ccccc3)=C2C(C)=O)cc1OC (configuration not stated) | inactive | – |
| Cc1cc(NC(=O)CCS(=O)(=O)c2cc(Br)cc3c2N(C(=O)C2CC2)CC3)ccc1Br | inactive | – |
| COc1c(O)cccc1/C=N/NC(=O)Cn1ccnc1C | inconclusive [inhibitor, single point] | – |
| COc1cccc(/C=N/Nc2ncnc3c2ncn3Cc2ccccc2)c1O | active: 3.66 µM | – |
| Cc1[nH]c2ccccc2c1C(=O)COC(=O)C(C)C | inactive | – |
| CCOC(=O)c1nc(Nc2ccc(C(C)=O)cc2)c2ccccc2n1 | active: 16.4 µM | – |
| O=C(COc1ccc(Br)cc1)NNC(=S)NC(=O)c1ccccc1[N+](=O)[O-] | inconclusive [inhibitor, single point] | – |
| O=C(CN1C(=O)NC2(CCCC2)C1=O)OCCOc1ccc(Cl)cc1 | inconclusive [inhibitor, partial curve, poor fit] | – |
| Cc1[nH]n(-c2ccc([N+](=O)[O-])cc2)c(=O)c1C=NCC1CCCO1 (configuration not stated) | active: 10.3 µM | – |
| COc1ccc(C2CC(c3cccs3)=NN2C(=O)CSC2=NCCS2)cc1 (configuration not stated) | inactive | – |
| COc1cc(OC)c(C(=O)OCC(=O)NCCc2ccccc2)cc1OC | inconclusive [inhibitor, single point] | – |
| COc1cc2c(cc1OC)C(COc1ccc3c(C)cc(=O)oc3c1)N(C(=O)C(C)C)CC2 (configuration not stated) | inconclusive [inhibitor, single point] | – |
| Nc1ccc2nc(-c3cccc(-c4nc5ccc(N)cc5[nH]4)n3)[nH]c2c1 | inconclusive [inhibitor, single point] | – |
| CC(C)(C)OC(=O)NCCCCCNC(=O)c1[nH]cnc1C(=O)Nc1ccc(Cl)cc1 | inconclusive [inhibitor, single point] | – |
| COc1cccc(/C=N/NC(=O)CNC(=O)c2ccco2)c1O | active: 6.51 µM | – |
| COc1ccc(/C=N/NC(=O)Nc2ccc3nsnc3c2)c(OC)c1 | inconclusive [inhibitor, single point] | – |
| Cc1ccc(-c2cn3nc(-c4ccccc4)c(-c4ccccc4)nc3n2)cc1 | inconclusive [inhibitor, single point] | – |
| CN(c1ccccc1)c1ccc(/C=N/NC(=O)CC#N)cc1 | inconclusive [inhibitor, single point] | – |
| CCc1ccccc1NC(=O)CSc1nc(C)c(C)o1 | – | inconclusive: -37.3% [inhibitor] |
| CCOC(=O)C1(CCOc2ccccc2)CCN(Cc2cccc(OC)c2)CC1 | active: 23.1 µM | – |
| CC(=O)Nc1ccc(C(=O)CCl)cc1 | active: 1.46 µM | – |
| c1ccc(-c2noc(-c3ccc4c(c3)OCO4)n2)nc1 | active: 5.17 µM | – |
| COc1cccc(-c2cnc3c(NC=O)cc(-c4ccc(S(C)(=O)=O)cc4)cn23)c1 | active: 18.4 µM | – |

| Compound | Potency | activity change, negative = growth inhibition |
| --- | --- | --- |
| Cc1cnc(CNc2ncnc3ccc(-c4ccc5c(c4)OCO5)cc23)cn1 | inconclusive [inhibitor, single point] | – |
| CCOc1cc(/C=N/NC(=O)c2ccccc2-n2cccc2)ccc1O | inconclusive [inhibitor, single point] | – |
| CCN(CC)c1ccc(/C=N/NC(=O)CCC(=O)NCc2ccccc2)c(O)c1 | active: 5.17 µM | – |
| Cc1ccc(C(=O)NCc2ccccn2)cc1S(=O)(=O)N1CCOCC1 | inactive | – |
| O=C(Nc1c(C(=O)Nc2ccc(F)cc2)oc2ccccc12)c1cc2ccccc2o1 | inconclusive [inhibitor, single point] | – |
| Cc1oc(-c2ccccc2NC(=O)c2cccnc2)nc1CNC(=O)c1ccc(N(C)C)cc1 | inactive | – |
| Cc1cccc(-n2c(C)cc(/C=N/NC(=O)c3cccc([N+](=O)[O-])c3C)c2C)c1 | inconclusive [inhibitor, single point] | – |
| CCN(C#N)c1nc(NC(C)C)nc(NC(C)C)n1 | inactive | – |
| COC(=O)c1nc(N2CCN(S(=O)(=O)c3ccc(C)cc3)CC2)c2ccccc2n1 | inconclusive [inhibitor, single point] | – |
| Cc1ccc(C)n1N1C(=O)/C(=C\c2ccc(Cl)cc2)SC1=S | inconclusive [inhibitor, single point] | – |
| c1ccc2[nH]c(CCCCCc3nc4ccccc4[nH]3)nc2c1 | inconclusive [inhibitor, single point] | – |
| O=C1CCC(C(=O)NCc2cccnc2)N1 (configuration not stated) | inconclusive [inhibitor, partial curve] | – |
| Cc1ccc(C)c(CNC(=O)c2ccc3c(c2)nc2n3CCCCC2)c1 | inconclusive [inhibitor, partial curve] | – |
| Cc1ccc(C)c(CN2CCC(CNC(=O)Nc3ccc(Br)cc3F)CC2)c1 | active: 18.4 µM and active: 10.3 µM | – |
| CC1(C)Cc2cccc(OCC(=O)Nc3cc(S(C)(=O)=O)ccc3Cl)c2O1 | inactive | – |
| Cc1ccc(Nc2nc(C)cs2)cc1 | inconclusive [inhibitor, single point] | – |
| Cc1cc(Oc2c(C(F)(F)F)oc3c(CN4CCC(C)CC4)c(O)ccc3c2=O)cc(C)c1Cl | inactive | – |
| CNc1nc(N(C)C)nc(N(C)C)n1 | inconclusive [inhibitor, single point] | – |
| CC1CC(C)CN(C(=O)COC(=O)CNS(=O)(=O)/C=C/c2ccccc2)C1 (configuration not stated) | inactive | – |
| COCCNc1nc(-c2ccccc2C)nc2ccccc12 | inconclusive [inhibitor, single point] | – |
| Cc1cccc(Nc2nnc(-c3ccc(C(=O)N4C[C@H]5C[C@H](C4)c4cccc(=O)n4C5)cc3)c3ccccc23)c1 | inconclusive [inhibitor, single point] | – |
| CC(SC1=NCCS1)C(=O)Nc1nnc(-c2ccc(Cl)cc2)s1 (configuration not stated) | active: 14.6 µM | – |
| Cc1ccc(NC(=O)COC(=O)CC2CC3CCC2C3)cc1S(=O)(=O)N1CCOCC1 (configuration not stated) | inactive | – |
